Results are given in words; binding and its absence hold for the method and conditions named. In cells and extracts the contact can be indirect. Some binding calls cover weakened binding; strength is not graded here. Where a sequence is shown, tags or fusion partners need not be part of it.

The values that follow come from publication PMC5440646, “T Cell Costimulation by CD6 Is Dependent on Bivalent Binding of a GADS/SLP-76 Complex” (Molecular and Cellular Biology, 2017).

Holding throughout (experiment): co-IP; Jurkat cells transduced with CD6-EGFP or mutants, treated with pervanadate, lysed in 1% Triton X-100; CD6 immunoprecipitated with CD6 MAb MEM-98 and protein A/G beads; Western blots for SLP-76, GADS, TSAd, GRB2, EGFP
In test [1] the target is T1, human CD6 Y629F Y662F double mutant fused to EGFP (human) (UniProt P30203).
T1 sequence: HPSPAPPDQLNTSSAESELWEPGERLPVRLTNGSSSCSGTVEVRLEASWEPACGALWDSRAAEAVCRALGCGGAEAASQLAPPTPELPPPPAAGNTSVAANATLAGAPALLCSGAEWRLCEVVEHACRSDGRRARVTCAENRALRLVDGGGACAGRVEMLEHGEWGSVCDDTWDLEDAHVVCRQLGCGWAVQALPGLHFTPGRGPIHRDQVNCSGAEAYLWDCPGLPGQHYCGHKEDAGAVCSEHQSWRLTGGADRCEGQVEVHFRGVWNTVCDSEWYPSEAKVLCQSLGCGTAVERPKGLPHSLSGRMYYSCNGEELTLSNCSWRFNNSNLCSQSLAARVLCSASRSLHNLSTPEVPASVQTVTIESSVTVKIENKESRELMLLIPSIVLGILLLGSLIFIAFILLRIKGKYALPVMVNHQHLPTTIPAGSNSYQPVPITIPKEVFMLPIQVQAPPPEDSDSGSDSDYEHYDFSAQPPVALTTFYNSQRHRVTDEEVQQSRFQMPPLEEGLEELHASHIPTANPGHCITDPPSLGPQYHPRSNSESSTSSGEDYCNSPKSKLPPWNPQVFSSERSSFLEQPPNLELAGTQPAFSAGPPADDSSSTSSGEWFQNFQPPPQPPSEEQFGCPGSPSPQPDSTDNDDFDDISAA

Test [2] concerns the target T2, human CD6 Y629F single mutant fused to EGFP (human) (UniProt P30203).
T2 sequence: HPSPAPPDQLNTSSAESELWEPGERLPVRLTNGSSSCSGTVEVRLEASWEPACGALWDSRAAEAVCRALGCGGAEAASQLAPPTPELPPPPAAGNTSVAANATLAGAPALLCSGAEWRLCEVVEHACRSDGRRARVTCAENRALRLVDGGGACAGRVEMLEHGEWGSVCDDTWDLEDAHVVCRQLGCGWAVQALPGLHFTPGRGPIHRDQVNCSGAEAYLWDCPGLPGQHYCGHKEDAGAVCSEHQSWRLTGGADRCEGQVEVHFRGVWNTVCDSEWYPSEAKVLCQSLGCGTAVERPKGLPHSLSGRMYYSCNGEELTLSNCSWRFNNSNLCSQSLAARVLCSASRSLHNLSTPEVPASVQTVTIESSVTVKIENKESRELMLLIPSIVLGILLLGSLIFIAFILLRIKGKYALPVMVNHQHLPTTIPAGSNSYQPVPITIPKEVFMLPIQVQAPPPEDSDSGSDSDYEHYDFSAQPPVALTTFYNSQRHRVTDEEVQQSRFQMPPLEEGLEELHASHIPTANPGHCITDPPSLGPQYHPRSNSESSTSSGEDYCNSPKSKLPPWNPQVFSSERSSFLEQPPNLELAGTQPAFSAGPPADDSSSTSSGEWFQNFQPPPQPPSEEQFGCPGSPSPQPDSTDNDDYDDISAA

The target in test [3] is T3, human CD6 Y662F single mutant fused to EGFP (human) (UniProt P30203).
T3 sequence: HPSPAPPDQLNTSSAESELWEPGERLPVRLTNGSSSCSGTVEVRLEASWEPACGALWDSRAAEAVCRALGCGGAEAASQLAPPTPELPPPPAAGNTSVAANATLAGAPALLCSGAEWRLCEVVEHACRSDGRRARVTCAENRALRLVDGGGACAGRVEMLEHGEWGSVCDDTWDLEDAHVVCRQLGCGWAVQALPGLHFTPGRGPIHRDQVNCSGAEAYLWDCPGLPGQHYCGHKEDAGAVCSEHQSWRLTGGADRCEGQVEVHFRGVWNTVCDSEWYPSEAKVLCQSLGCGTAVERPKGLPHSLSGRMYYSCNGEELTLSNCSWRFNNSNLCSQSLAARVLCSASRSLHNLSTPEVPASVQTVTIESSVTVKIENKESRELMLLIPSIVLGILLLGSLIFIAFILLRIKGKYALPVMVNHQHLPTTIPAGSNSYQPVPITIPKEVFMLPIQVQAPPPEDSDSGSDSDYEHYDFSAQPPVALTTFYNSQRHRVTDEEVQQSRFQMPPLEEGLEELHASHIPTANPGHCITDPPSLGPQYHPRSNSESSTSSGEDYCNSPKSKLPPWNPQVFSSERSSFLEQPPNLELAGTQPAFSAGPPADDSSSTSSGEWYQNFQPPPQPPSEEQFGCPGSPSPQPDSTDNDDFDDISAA

For test [4], the target named is T4, human CD6 fused to EGFP (human) (UniProt P30203).
T4 sequence: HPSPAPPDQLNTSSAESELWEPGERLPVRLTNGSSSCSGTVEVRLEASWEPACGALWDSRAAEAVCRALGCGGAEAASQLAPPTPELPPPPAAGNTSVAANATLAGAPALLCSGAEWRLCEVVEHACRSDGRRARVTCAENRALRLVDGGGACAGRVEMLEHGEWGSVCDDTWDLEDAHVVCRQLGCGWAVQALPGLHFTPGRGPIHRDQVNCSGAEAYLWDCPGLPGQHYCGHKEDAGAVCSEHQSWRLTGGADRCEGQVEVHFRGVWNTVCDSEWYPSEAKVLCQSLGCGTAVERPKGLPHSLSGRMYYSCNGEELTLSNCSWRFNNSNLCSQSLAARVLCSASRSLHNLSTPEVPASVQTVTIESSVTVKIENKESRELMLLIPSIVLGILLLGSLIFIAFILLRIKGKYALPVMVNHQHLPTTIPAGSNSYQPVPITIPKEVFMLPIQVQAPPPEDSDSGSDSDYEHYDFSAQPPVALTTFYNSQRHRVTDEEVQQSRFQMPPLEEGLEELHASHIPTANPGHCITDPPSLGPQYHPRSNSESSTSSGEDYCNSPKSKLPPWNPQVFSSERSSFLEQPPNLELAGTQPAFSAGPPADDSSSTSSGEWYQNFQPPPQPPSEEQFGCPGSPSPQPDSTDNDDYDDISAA

B1: GRB2-related adaptor downstream of Shc (GADS), endogenous (protein, UniProt O75791 1-330)
chain: MEAVAKFDFTASGEDELSFHTGDVLKILSNQEEWFKAELGSQEGYVPKNFIDIQFPKWFHEGLSRHQAENLLMGKEVGFFIIRASQSSPGDFSISVRHEDDVQHFKVMRDNKGNYFLWTEKFPSLNKLVDYYRTNSISRQKQIFLRDRTREDQGHRGNSLDRRSQGGPHLSGAVGEEIRPSMNRKLSDHPPTLPLQQHQHQPQPPQYAPAPQQLQQPPQQRYLQHHHFHQERRGGSLDINDGHCGTGLGSEMNAALMHRRHTDPVQLQAAGRVRWARALYDFEALEDDELGFHSGEVVEVLDSSNPSWWTGRLHNKLGLFPANYVAPMTR
As to B1, the values for the binding entry in test [1], in test [2] and in test [3] were “no binding”, “binds” and “binds”, respectively.

B2: SH2 domain-containing leukocyte molecule of 76 kDa (SLP-76), endogenous (protein, UniProt Q13094 1-533)
chain: MALRNVPFRSEVLGWDPDSLADYFKKLNYKDCEKAVKKYHIDGARFLNLTENDIQKFPKLRVPILSKLSQEINKNEERRSIFTRKPQVPRFPEETESHEEDNGGWSSFEEDDYESPNDDQDGEDDGDYESPNEEEEAPVEDDADYEPPPSNDEEALQNSILPAKPFPNSNSMYIDRPPSGKTPQQPPVPPQRPMAALPPPPAGRNHSPLPPPQTNHEEPSRSRNHKTAKLPAPSIDRSTKPPLDRSLAPFDREPFTLGKKPPFSDKPSIPAGRSLGEHLPKIQKPPLPPTTERHERSSPLPGKKPPVPKHGWGPDRRENDEDDVHQRPLPQPALLPMSSNTFPSRSTKPSPMNPLPSSHMPGAFSESNSSFPQSASLPPYFSQGPSNRPPIRAEGRNFPLPLPNKPRPPSPAEEENSLNEEWYVSYITRPEAEAALRKINQDGTFLVRDSSKKTTTNPYVLMVLYKDKVYNIQIRYQKESQVYLLGTGLRGKEDFLSVSDIIDYFRKMPLLLIDGKNRGSRYQCTLTHAAGYP
As to B2, the binding entry in test [1] is reported as “no binding”; in test [2], “binds”; in test [4], “binds”; in test [3] it was “binds”.
